Assay results taken from PubChem BioAssay AID318 (DTP/NCI, 2004).
Toxic doses and inconclusive results are not listed. The source holds more than one record for some entries. They are shown here; other results are not. The source may hold further records. Values given together are repeats (runs, samples, wells, individuals or studies).

System: BDF1 mice, P815 leukemia ip, survival T/C
Assay: NCI In Vivo Anticancer Drug Screen. Data for tumor model P815 Mast Cell Leukemia (Ascitic) (intraperitoneal) in B6D2F1 (BDF1) mice
Conditions: endpoint: survival time, mean or median, higher = longer survival
Description: The antitumor activity of compounds was measured in mice bearing transplantable tumors. Survival or tumor size were measured and the results are expressed as the measurement made in the treated group (T) divided by the measurement made in the vehicle treated control group (C). The tumor model used in this assay is P815 Mast Cell Leukemia (Ascitic) (intraperitoneal) in B6D2F1 (BDF1) mice

## CCCCOP(=S)(N1CC1)N1CC1
dose: 8.0 mg/kg/injection, schedule: Q01DX010 (ip), vehicle: saline
  T/C: 105 % of control and 150 % of control

## Cn1c(N)nc2nc[nH]c2c1=S
dose: 80.0 mg/kg/injection, schedule: Q01DX010 (ip), vehicle: saline
  T/C: 112 % of control and 166 % of control

## CN(C)/N=N/c1nc[nH]c1C(N)=O
dose: 75.0 mg/kg/injection, schedule: Q01DX015 (ip), vehicle: carboxymethylcellulose (CMC)
  T/C: 120 % of control and 168 % of control

## Nc1nc(SCc2ccccc2)c2[nH]cnc2n1
dose: 32.0 mg/kg/injection, schedule: Q01DX010 (ip), vehicle: saline
  T/C: 122 % of control and 155 % of control
